# Source: the supplement of paper PMC8728848
# The list shows a part of the results.
# B1: PpFlo2 (Pichia pastoris) (protein)
# chain: MGSSHHHHHHSSGLVPRGSHMDDSGNGDNSDTAYGCDITTNAVDGFDATIYQYNANDLRLIRDPTFMSTGYLGRNVLNKISGVTVPGFNIWNPSSRTATVYGVKNVNYYNMVLELKGYFKADVSGDYKLTLSHIDDSSMLFFGKETAFKCCDAGSIPLNEAPTDYSLFTIKPSNQVNSEVISATQYLEAGKYYPVRIVFVNALERARFDFKLTIPSGAVLDDFQNYIYQFGDLDENSCHE
# Experiments:
# Assay in all cases: glycan array binding signal (z-score within array); higher = stronger binding
# Settings in all cases: glycan notation: IUPAC condensed, linker removed
# [1] = molecular target: Fuc(a1-2)[GalNAc(a1-3)]Gal(b1-4)GlcNAc
# In short: (§1)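 The binding signal is a Z-score computed within each array. Data were drawn from 3228 arrays in the Consortium for Functional Glycomics database, restricted to those with a known protein sequence. Scores were averaged over arrays of the same protein sequence at different concentrations or buffers, and over linkers, and negative values can be taken as non-binding.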
# [2] = molecular target: Fuc(a1-2)[GalNAc(a1-3)]Gal(b1-4)GlcNAc(b1-2)Man
# In short: as §1
# [3] = molecular target: Fuc(a1-2)[GalNAc(a1-3)]Gal(b1-4)GlcNAc(b1-2)Man(a1-3)[Fuc(a1-2)[GalNAc(a1-3)]Gal(b1-4)GlcNAc(b1-2)Man(a1-6)]Man(b1-4)GlcNAc(b1-4)GlcNAc
# In short: as §1
# [4] = molecular target: Fuc(a1-2)[GalNAc(a1-3)]Gal(b1-4)GlcNAc(b1-2)Man(a1-3)[Fuc(a1-2)[GalNAc(a1-3)]Gal(b1-4)GlcNAc(b1-2)Man(a1-6)]Man(b1-4)GlcNAc(b1-4)[Fuc(a1-6)]GlcNAc
# In short: as §1
# [5] = molecular target: Fuc(a1-2)[GalNAc(a1-3)]Gal(b1-4)GlcNAc(b1-3)Gal(b1-4)GlcNAc
# In short: as §1
# [6] = molecular target: Fuc(a1-2)[GalNAc(a1-3)]Gal(b1-4)GlcNAc(b1-3)Gal(b1-4)GlcNAc(b1-3)Gal(b1-4)GlcNAc
# In short: as §1
# [7] = molecular target: Fuc(a1-2)[GalNAc(a1-3)]Gal(b1-4)GlcNAc(b1-3)GalNAc
# In short: as §1
# [8] = molecular target: Fuc(a1-2)[GalNAc(a1-3)]Gal(b1-4)GlcNAc(b1-3)[Fuc(a1-2)[GalNAc(a1-3)]Gal(b1-4)GlcNAc(b1-6)]GalNAc
# In short: as §1
# [9] = molecular target: Fuc(a1-2)[GalNAc(a1-3)]Gal(b1-4)GlcNAc(b1-6)GalNAc
# In short: as §1
# [10] = molecular target: Fuc(a1-2)[GalNAc(a1-3)]Gal(b1-4)[Fuc(a1-3)]GlcNAc
# In short: as §1
# [11] = molecular target: Fuc(a1-2)[GalNAc(a1-3)]Gal(b1-4)[Fuc(a1-3)]GlcNAc(b1-3)GalNAc
# In short: as §1
# [12] = molecular target: Fuc(a1-2)[GalNAc(a1-4)]Gal(b1-4)GlcNAc
# In short: as §1
# [13] = molecular target: Fuc(a1-2)[GalNAc(b1-3)]Gal
# In short: as §1
# Fuc(a1-3)GlcNAc = molecular target: Fuc(a1-3)GlcNAc
# In short: as §1
# [14] = molecular target: Fuc(a1-3)[Gal(b1-4)]Glc6S
# In short: as §1
# [15] = molecular target: Fuc(a1-3)[Gal(b1-4)]GlcNAc
# In short: as §1
# [16] = molecular target: Fuc(a1-3)[Gal(b1-4)]GlcNAc(b1-2)Man
# In short: as §1
# [17] = molecular target: Fuc(a1-3)[Gal(b1-4)]GlcNAc(b1-2)Man(a1-3)[Fuc(a1-3)[Gal(b1-4)]GlcNAc(b1-2)Man(a1-6)]Man(b1-4)GlcNAc(b1-4)GlcNAc
# In short: as §1
# [18] = molecular target: Fuc(a1-3)[Gal(b1-4)]GlcNAc(b1-2)Man(a1-3)[Fuc(a1-3)[Gal(b1-4)]GlcNAc(b1-2)Man(a1-6)]Man(b1-4)GlcNAc(b1-4)[Fuc(a1-6)]GlcNAc
# In short: as §1
# [19] = molecular target: Fuc(a1-3)[Gal(b1-4)]GlcNAc(b1-3)Gal(b1-3)[Fuc(a1-4)]GlcNAc
# In short: as §1
# [20] = molecular target: Fuc(a1-3)[Gal(b1-4)]GlcNAc(b1-3)Gal(b1-4)[Fuc(a1-3)]GlcNAc
# In short: as §1
# [21] = molecular target: Fuc(a1-3)[Gal(b1-4)]GlcNAc(b1-3)Gal(b1-4)[Fuc(a1-3)]GlcNAc(b1-3)Gal(b1-4)[Fuc(a1-3)]GlcNAc
# In short: as §1
# [22] = molecular target: Fuc(a1-3)[Gal(b1-4)]GlcNAc(b1-3)GalNAc
# In short: as §1
binder,measurement,setting,value
B1,glycan array binding signal (z-score),[1],-0.3
same,glycan array binding signal (z-score),[2],-0.27
same,glycan array binding signal (z-score),[3],-0.231
same,glycan array binding signal (z-score),[4],-0.3
same,glycan array binding signal (z-score),[5],-0.298
same,glycan array binding signal (z-score),[6],-0.2
same,glycan array binding signal (z-score),[7],-0.295
same,glycan array binding signal (z-score),[8],-0.07
same,glycan array binding signal (z-score),[9],-0.27
same,glycan array binding signal (z-score),[10],-0.291
same,glycan array binding signal (z-score),[11],-0.221
same,glycan array binding signal (z-score),[12],-0.3
same,glycan array binding signal (z-score),[13],-0.278
same,glycan array binding signal (z-score),Fuc(a1-3)GlcNAc,-0.292
same,glycan array binding signal (z-score),[14],-0.301
same,glycan array binding signal (z-score),[15],-0.296
same,glycan array binding signal (z-score),[16],-0.276
same,glycan array binding signal (z-score),[17],-0.288
same,glycan array binding signal (z-score),[18],-0.301
same,glycan array binding signal (z-score),[19],-0.217
same,glycan array binding signal (z-score),[20],-0.04
same,glycan array binding signal (z-score),[21],-0.238
same,glycan array binding signal (z-score),[22],-0.287
